# Reference: the supplement of paper PMC8728848
# The other results are listed elsewhere or left out.
# B1: Pbx2 (Cryptococcus neoformans) (protein)
# chain: AVSPLPSSTELVFYSQKRRRRRICSTATGSLSTPDPTRMTSDPYKRVGMRFSSVPRLLITFLSLLLLVSAAPPCVRFADYDSINQMFIDGGPGTKVLLCPNRLYRLSGPIIFTAADQEIATYGYPTGSERAVLRVEGRNTATAIQGDCRRCARVSVKNLVVDGNRKKLGRMRDFQLATGLVVLGGNEGQSIQNSWIKNPRGFTAIHIREGDKLQCSGARVEKNEIGPVGEEYDPEKDGDDPEMSPLGRPLADGVSIACRDSFIRDNTFRDNTDAAIVVYCSPGTLIHANHIFAQSLSAMAGILMVDSTPFNGDYTGTVVRSNIIDAVSRTIRVGIGIGPTVWSDDTETILTGGSVIGNGLKGRYMGYGIAAAGLKQWTIKDNWDEAKHEGRKSARCFDEPVNPDPIGLLYNRPTMEDCTVQSGFADHDFQYLVCIDGLYDKTNPPKHDPAPLAHDPSPTNAQEDNTVQQDGGDSKSKSIEQPREASDIEAEPSVEKMFSTGSEMMDDVLEHSHQRMHEVIDHLSRRIDILGAASAGKGSGDSKISEVLDPAMSSHLEKLQRKIEHLEFSLRSQIETAIQLRSAIQGWDQEMALVTDWEYDILLDVRHKLELSSYPHDQPLDPRLMRGQSYLNNEAVLVDDHSHPSLEGENLRAMSDRARLNANEEA
# Assays:
# Assay in all cases: glycan array binding signal (z-score within array); higher = stronger binding
# Conditions in all cases: glycan notation: IUPAC condensed, linker removed
# Gal(b1-4)Glc6S = target: Gal(b1-4)Glc6S
# Method in brief: (§1)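 The binding signal is a Z-score computed within each array and averaged over linkers. Arrays of the same protein sequence at different concentrations or buffers were also averaged together. Data originate from 3228 arrays in the Consortium for Functional Glycomics database, kept only where the protein sequence was available.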
# Gal(b1-4)GlcNAc = target: Gal(b1-4)GlcNAc
# Method in brief: as §1
# [1] = target: Gal(b1-4)GlcNAc(a1-6)Gal(b1-4)GlcNAc
# Method in brief: as §1
# Gal(b1-4)GlcNAc(b1-2)Man = target: Gal(b1-4)GlcNAc(b1-2)Man
# Method in brief: as §1
# [2] = target: Gal(b1-4)GlcNAc(b1-2)Man(a1-3)Man(b1-4)GlcNAc(b1-4)GlcNAc
# Method in brief: as §1
# [3] = target: Gal(b1-4)GlcNAc(b1-2)Man(a1-3)[Gal(b1-4)GlcNAc(b1-2)Man(a1-6)]Man(b1-4)GlcNAc(b1-4)GlcNAc
# Method in brief: as §1
# [4] = target: Gal(b1-4)GlcNAc(b1-2)Man(a1-3)[Gal(b1-4)GlcNAc(b1-2)Man(a1-6)]Man(b1-4)GlcNAc(b1-4)[Fuc(a1-6)]GlcNAc
# Method in brief: as §1
# [5] = target: Gal(b1-4)GlcNAc(b1-2)Man(a1-3)[Gal(b1-4)GlcNAc(b1-2)Man(a1-6)][Gal(b1-4)GlcNAc(b1-4)]Man(b1-4)GlcNAc(b1-4)[Fuc(a1-6)]GlcNAc
# Method in brief: as §1
# [6] = target: Gal(b1-4)GlcNAc(b1-2)Man(a1-3)[Gal(b1-4)GlcNAc(b1-2)Man(a1-6)][GlcNAc(b1-4)]Man(b1-4)GlcNAc(b1-4)[Fuc(a1-6)]GlcNAc
# Method in brief: as §1
# [7] = target: Gal(b1-4)GlcNAc(b1-2)Man(a1-3)[GlcNAc(b1-2)Man(a1-6)]Man(b1-4)GlcNAc(b1-4)GlcNAc
# Method in brief: as §1
# [8] = target: Gal(b1-4)GlcNAc(b1-2)Man(a1-3)[GlcNAc(b1-4)][Gal(b1-4)GlcNAc(b1-2)Man(a1-6)]Man(b1-4)GlcNAc(b1-4)GlcNAc
# Method in brief: as §1
# [9] = target: Gal(b1-4)GlcNAc(b1-2)Man(a1-3)[Man(a1-6)]Man(b1-4)GlcNAc(b1-4)GlcNAc
# Method in brief: as §1
# [10] = target: Gal(b1-4)GlcNAc(b1-2)Man(a1-6)Man(b1-4)GlcNAc(b1-4)GlcNAc
# Method in brief: as §1
# [11] = target: Gal(b1-4)GlcNAc(b1-2)Man(a1-6)[GlcNAc(b1-2)Man(a1-3)]Man(b1-4)GlcNAc(b1-4)GlcNAc
# Method in brief: as §1
# [12] = target: Gal(b1-4)GlcNAc(b1-2)Man(a1-6)[Man(a1-3)]Man(b1-4)GlcNAc(b1-4)GlcNAc
# Method in brief: as §1
# [13] = target: Gal(b1-4)GlcNAc(b1-2)[Gal(b1-4)GlcNAc(b1-4)]Man(a1-3)[Gal(b1-4)GlcNAc(b1-2)Man(a1-6)]Man(b1-4)GlcNAc(b1-4)GlcNAc
# Method in brief: as §1
# [14] = target: Gal(b1-4)GlcNAc(b1-2)[Gal(b1-4)GlcNAc(b1-4)]Man(a1-3)[Gal(b1-4)GlcNAc(b1-2)[Gal(b1-4)GlcNAc(b1-6)]Man(a1-6)]Man(b1-4)GlcNAc(b1-4)GlcNAc
# Method in brief: as §1
# [15] = target: Gal(b1-4)GlcNAc(b1-2)[Gal(b1-4)GlcNAc(b1-4)]Man(a1-3)[GlcNAc(b1-4)][Gal(b1-4)GlcNAc(b1-2)Man(a1-6)]Man(b1-4)GlcNAc(b1-4)GlcNAc
# Method in brief: as §1
# [16] = target: Gal(b1-4)GlcNAc(b1-2)[Gal(b1-4)GlcNAc(b1-4)]Man(a1-3)[GlcNAc(b1-4)][Gal(b1-4)GlcNAc(b1-2)[Gal(b1-4)GlcNAc(b1-6)]Man(a1-6)]Man(b1-4)GlcNAc(b1-4)GlcNAc
# Method in brief: as §1
# [17] = target: Gal(b1-4)GlcNAc(b1-2)[Gal(b1-4)GlcNAc(b1-6)]Man(a1-6)[Gal(b1-4)GlcNAc(b1-2)Man(a1-3)]Man(b1-4)GlcNAc(b1-4)GlcNAc
# Method in brief: as §1
# [18] = target: Gal(b1-4)GlcNAc(b1-2)[Gal(b1-4)GlcNAc(b1-6)]Man(a1-6)[Gal(b1-4)GlcNAc(b1-2)Man(a1-3)]Man(b1-4)GlcNAc(b1-4)[Fuc(a1-6)]GlcNAc
# Method in brief: as §1
# [19] = target: Gal(b1-4)GlcNAc(b1-2)[Gal(b1-4)GlcNAc(b1-6)]Man(a1-6)[GlcNAc(b1-4)][Gal(b1-4)GlcNAc(b1-2)Man(a1-3)]Man(b1-4)GlcNAc(b1-4)GlcNAc
# Method in brief: as §1
# [20] = target: Gal(b1-4)GlcNAc(b1-2)[Gal(b1-4)GlcNAc(b1-6)]Man(a1-6)[GlcNAc(b1-4)][Gal(b1-4)GlcNAc(b1-2)[Gal(b1-4)GlcNAc(b1-4)]Man(a1-3)]Man(b1-4)GlcNAc(b1-4)[Fuc(a1-6)]GlcNAc
# Method in brief: as §1
# [21] = target: Gal(b1-4)GlcNAc(b1-3)Gal(b1-3)GalNAc
# Method in brief: as §1
# [22] = target: Gal(b1-4)GlcNAc(b1-3)Gal(b1-3)GlcNAc
# Method in brief: as §1
# [23] = target: Gal(b1-4)GlcNAc(b1-3)Gal(b1-4)Glc
# Method in brief: as §1
# [24] = target: Gal(b1-4)GlcNAc(b1-3)Gal(b1-4)GlcNAc
# Method in brief: as §1
# [25] = target: Gal(b1-4)GlcNAc(b1-3)Gal(b1-4)GlcNAc(b1-2)Man(a1-3)[Gal(b1-4)GlcNAc(b1-3)Gal(b1-4)GlcNAc(b1-2)Man(a1-6)]Man(b1-4)GlcNAc(b1-4)GlcNAc
# Method in brief: as §1
# [26] = target: Gal(b1-4)GlcNAc(b1-3)Gal(b1-4)GlcNAc(b1-2)Man(a1-3)[Gal(b1-4)GlcNAc(b1-3)Gal(b1-4)GlcNAc(b1-2)Man(a1-6)]Man(b1-4)GlcNAc(b1-4)[Fuc(a1-6)]GlcNAc
# Method in brief: as §1
# [27] = target: Gal(b1-4)GlcNAc(b1-3)Gal(b1-4)GlcNAc(b1-2)[Gal(b1-4)GlcNAc(b1-3)Gal(b1-4)GlcNAc(b1-6)]Man(a1-6)[Gal(b1-4)GlcNAc(b1-3)Gal(b1-4)GlcNAc(b1-2)Man(a1-3)]Man(b1-4)GlcNAc(b1-4)GlcNAc
# Method in brief: as §1
binder,measurement,setting,value
B1,glycan array binding signal (z-score),Gal(b1-4)Glc6S,-0.292
same,glycan array binding signal (z-score),Gal(b1-4)GlcNAc,-0.452
same,glycan array binding signal (z-score),[1],-0.563
same,glycan array binding signal (z-score),Gal(b1-4)GlcNAc(b1-2)Man,1.2
same,glycan array binding signal (z-score),[2],0.096
same,glycan array binding signal (z-score),[3],-0.237
same,glycan array binding signal (z-score),[4],-0.371
same,glycan array binding signal (z-score),[5],-0.068
same,glycan array binding signal (z-score),[6],-0.027
same,glycan array binding signal (z-score),[7],-0.415
same,glycan array binding signal (z-score),[8],0.266
same,glycan array binding signal (z-score),[9],0.326
same,glycan array binding signal (z-score),[10],-0.133
same,glycan array binding signal (z-score),[11],-0.101
same,glycan array binding signal (z-score),[12],0.603
same,glycan array binding signal (z-score),[13],-0.482
same,glycan array binding signal (z-score),[14],-0.08
same,glycan array binding signal (z-score),[15],-0.066
same,glycan array binding signal (z-score),[16],-0.08
same,glycan array binding signal (z-score),[17],-0.097
same,glycan array binding signal (z-score),[18],-0.242
same,glycan array binding signal (z-score),[19],0.357
same,glycan array binding signal (z-score),[20],-0.162
same,glycan array binding signal (z-score),[21],-0.388
same,glycan array binding signal (z-score),[22],-0.114
same,glycan array binding signal (z-score),[23],-0.237
same,glycan array binding signal (z-score),[24],-0.439
same,glycan array binding signal (z-score),[25],4.98
same,glycan array binding signal (z-score),[26],-0.298
same,glycan array binding signal (z-score),[27],1.59
